Test results published in the RNAGym collection of RNA variant scans (doi:10.1093/nar/gkz1192).
The source gives no read counts; variants with many changes may rest on few reads.

B1: CPEB3 Ribozyme (parent)
chain: UAACAGGGGGCCACAGCAGAAGCGUUCACGUCGCAGCCCCUGUCAGAUUCUGGUGAAUCUGCGAAUUCUGCUGUAUAUCUC

Variants of: B1
Test: self-cleavage, relative activity (ratio to wild type); higher = more cleavage; in vitro, sequencing
How it was run: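 Relative activity was defined as the cleaved/total read fraction for a variant divided by the same fraction for the unmutated ribozyme. CPEB3 self-cleaving ribozyme libraries were made by rounds of error-prone PCR, barcoded, and transcribed in vitro with T7 RNA polymerase for 5 hours at 37°C, and cleavage ran through transcription plus a 15 min DNase I step before EDTA. Illumina sequencing of template-switched reverse transcripts gave the reads, and DNA sequencing mapped the barcodes. Averages come from three batches, using variants with at least 5 reads.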

Variant | self-cleavage
UAACAGGGGGCCACAGCAGAAGCGUUCACGUCGCAGCCCCUGUCAGAUUCAGGCGAAUCCGCGAAUUCUGCUGUAUAUCUC [U51A U54C U60C] | 0.93
UAACAGGGGGCCACAGCAGAAGCGUUCACGUCGCAGCCCCUGUCAGAUUCAGGGGGAUCUGCGAAUUCUGCAGUAUAUCUC [U51A U54G A56G U72A] | 0.2
UAACAGGGGGCCACAGCAGAAGCGUUCACGUCGCAGCCCCUGUCAGAUUCAGGGGAAUCUGCGAAUCCUGCUGUAUAUCUC [U51A U54G U67C] | 0.35
UAACAGGGGGCCACAGCAGAAGCGUUCACGUCGCAGCCCCUGUCAGAUUCAGGUGAAACUGCGUAUUCUGCUGUAUAUCUC [U51A U58A A64U] | 0.15
UAACAGGGGGCCACAGCAGAAGCGUUCACGUCGCAGCCCCUGUCAGAUUCAGGUGAACCUGCGAAUUCUGCUGUAUAUUUC [U51A U58C C79U] | 0.3
UAACAGGGGGCCACAGCAGAAGCGUUCACGUCGCAGCCCCUGUCAGAUUCAGGUGAACCUGCGAAUGCUGCUGUAUAUCUC [U51A U58C U67G] | 0.27
UAACAGGGGGCCACAGCAGAAGCGUUCACGUCGCAGCCCCUGUCAGAUUCAGGUGAACCUGCGAAUUCCGCUGUAUAUCUC [U51A U58C U69C] | 0.56
UAACAGGGGGCCACAGCAGAAGCGUUCACGUCGCAGCCCCUGUCAGAUUCAGGUGAAGCUGCGAAUUCUGCAGUAUACCUC [U51A U58G U72A U78C] | 0.22
UAACAGGGGGCCACAGCAGAAGCGUUCACGUCGCAGCCCCUGUCAGAUUCAGGUGAAUCAGCGAAUUCUGCUGUAUAUUUC [U51A U60A C79U] | 0.48
UAACAGGGGGCCACAGCAGAAGCGUUCACGUCGCAGCCCCUGUCAGAUUCAGGUGAAUCAGCGAAUUCUGCUGCGUAUCUC [U51A U60A U74C A75G] | 0.86
UAACAGGGGGCCACAGCAGAAGCGUUCACGUCGCAGCCCCUGUCAGAUUCAGGUGAAUCCGCGAAAUCUGCUGUAUAUCUC [U51A U60C U66A] | 0.26
UAACAGGGGGCCACAGCAGAAGCGUUCACGUCGCAGCCCCUGUCAGAUUCAGGUGAAUCCGCGAAUUCUGCUGGAUAUCCC [U51A U60C U74G U80C] | 0.72
UAACAGGGGGCCACAGCAGAAGCGUUCACGUCGCAGCCCCUGUCAGAUUCAGGUGAAUCUGCGAAAUCUGCUGCAUAUCUC [U51A U66A U74C] | 0.89
UAACAGGGGGCCACAGCAGAAGCGUUCACGUCGCAGCCCCUGUCAGAUUCAGGUGAAUCUGCGAAUCCUGCUGUCUAUCUC [U51A U67C A75C] | 0.57
UAACAGGGGGCCACAGCAGAAGCGUUCACGUCGCAGCCCCUGUCAGAUUCAGGUGAAUCUGCGAAUUCUGCCGUAUGUCUC [U51A U72C A77G] | 1.26
UAACAGGGGGCCACAGCAGAAGCGUUCACGUCGCAGCCCCUGUCAGAUUCAGGUGAAUCUGCGAAUUCUGCCGUAAAUCUC [U51A U72C U76A] | 1.3
UAACAGGGGGCCACAGCAGAAGCGUUCACGUCGCAGCCCCUGUCAGAUUCAGGUGAAUCUGCGAAUUCUGCCGUAUAUCAC [U51A U72C U80A] | 1.29

Variant | self-cleavage
UAACAGGGGGCCACAGCAGAAGCGUUCACGUCGCAGCCCCUGUCAGAUUCCGGUGCAUCUGCGAAUUCUGCUGUAUACCUC [U51C A56C U78C] | 0.25
UAACAGGGGGCCACAGCAGAAGCGUUCACGUCGCAGCCCCUGUCAGAUUCCGGUGGGUCUGCGAAUUCCGCUGUAUAUCUC [U51C A56G A57G U69C] | 0.22
UAACAGGGGGCCACAGCAGAAGCGUUCACGUCGCAGCCCCUGUCAGAUUCCGGUGGAUCUGCGGACUCUGCUAUAUACCUC [U51C A56G A64G U66C G73A U78C] | 0.41
UAACAGGGGGCCACAGCAGAAGCGUUCACGUCGCAGCCCCUGUCAGAUUCCGGUGGACCUGCGUAUUCUGCUGUAUAUCUC [U51C A56G U58C A64U] | 0.18
UAACAGGGGGCCACAGCAGAAGCGUUCACGUCGCAGCCCCUGUCAGAUUCCGGUGGAUCUGCGAAUGCUGCUGUAUAUCUC [U51C A56G U67G] | 0.33
UAACAGGGGGCCACAGCAGAAGCGUUCACGUCGCAGCCCCUGUCAGAUUCCGGUGGAUCUGCGAAUUCUGCCGUAUAUCUC [U51C A56G U72C] | 1.02
UAACAGGGGGCCACAGCAGAAGCGUUCACGUCGCAGCCCCUGUCAGAUUCCGGUGUGUCUGCGAAUUCUGCUGUAUAUCCC [U51C A56U A57G U80C] | 0.29
UAACAGGGGGCCACAGCAGAAGCGUUCACGUCGCAGCCCCUGUCAGAUUCCGGUGUAUCUGCGAAUUCUGCUGUACACCUC [U51C A56U U76C U78C] | 0.45
UAACAGGGGGCCACAGCAGAAGCGUUCACGUCGCAGCCCCUGUCAGAUUCCGGUGAGUCUGCGAAUUCUGCUGUAUCCCUC [U51C A57G A77C U78C] | 0.75
UAACAGGGGGCCACAGCAGAAGCGUUCACGUCGCAGCCCCUGUCAGAUUCCGGUGAGUCUGCGAAUUCUGCUGUAUGUCUC [U51C A57G A77G] | 0.55
UAACAGGGGGCCACAGCAGAAGCGUUCACGUCGCAGCCCCUGUCAGAUUCCGGUGAGCCUGCGAAUUCUGCUGUAUAUCUC [U51C A57G U58C] | 0.37
UAACAGGGGGCCACAGCAGAAGCGUUCACGUCGCAGCCCCUGUCAGAUUCCGGUGAGUCUGCGAACUCUGCUGUAUAUCUC [U51C A57G U66C] | 0.47
UAACAGGGGGCCACAGCAGAAGCGUUCACGUCGCAGCCCCUGUCAGAUUCCGGUGAGUCUGCGAAUACUGCUGUAUAUCUC [U51C A57G U67A] | 0.5
UAACAGGGGGCCACAGCAGAAGCGUUCACGUCGCAGCCCCUGUCAGAUUCCGGUGAGUCUGCGAAUUCAGCUGUAUUCCUC [U51C A57G U69A A77U U78C] | 0.62
UAACAGGGGGCCACAGCAGAAGCGUUCACGUCGCAGCCCCUGUCAGAUUCCGGUGAGUCUGCGAAUUCUGCAGUAUAACCC [U51C A57G U72A U78A U80C] | 0.39
UAACAGGGGGCCACAGCAGAAGCGUUCACGUCGCAGCCCCUGUCAGAUUCCGGUGAGUCUGCGAAUUCUGCUGUAUAGCCC [U51C A57G U78G U80C] | 0.75
UAACAGGGGGCCACAGCAGAAGCGUUCACGUCGCAGCCCCUGUCAGAUUCCGGUGAAUCUGCGGAUCCUGCUGUAUAUCUC [U51C A64G U67C] | 0.31
